Target: the molecule itself
Assay: cross-linking; intact transfected HEK293T cells, 20 μg/mL cycloheximide for 8 h beforehand; 3 mM cell-impermeable BS3 in crosslinking buffer (20 mM PBS, 1 mM CaCl2, 0.5 mM MgCl2, pH 8) for 30 min on ice; lysates on 4-20% gradient SDS-PAGE, Western blot for GFP; shows surface-localized oligomers

B1: Panx1-EGFP (mouse Pannexin 1, full length, EGFP-tagged) (natural protein)
chain: MAIAHLATEYVFSDFLLKEPTEPKFKGLRLELAVDKMVTCIAVGLPLLLISLAFAQEISIGTQISCFSPSSFSWRQAAFVDSYCWAAVQQKSSLQSESGNLPLWLHKFFPYILLLFAILLYLPALFWRFSAAPHLCSDLKFIMEELDKVYNRAIKAAKSARDLDLRDGPGPPGVTENVGQSLWEISESHFKYPIVEQYLKTKKNSSHLIMKYISCRLVTFVVILLACIYLSYYFSLSSLSDEFLCSIKSGVLKNDSTIPDRFQCKLIAVGIFQLLSLINLIVYALLIPVVVYTFFIPF[about 120 residues left out]
notes: Pannexin 1 (Panx1), mouse, NCBI NP_062355.2, full length; The vector pEGFP-N1 is named for the deletion mutants and places EGFP after the insert, so the tag is probably C-terminal; The protein is N-glycosylated (Gly0, Gly1, Gly2 species); also called full length Panx1-EGFP; wildtype Panx1; source: HEK293T, transfected (PEI), on cells, then in lysate
stoichiometry N: 6
